From US20110319597A1 (CAPHALON AUSTRALIA, published 2011)

Molecular target: T1, recombinant human TNFα (CytoLab) (human, UniProt P01375 partial chain)
T1 construct: coated on the ELISA plate at 1 µg/ml; also called Tumour necrosis factor alpha
Test: ELISA on coated human TNFα

T1 sequence (P01375 77-233 limits assumed): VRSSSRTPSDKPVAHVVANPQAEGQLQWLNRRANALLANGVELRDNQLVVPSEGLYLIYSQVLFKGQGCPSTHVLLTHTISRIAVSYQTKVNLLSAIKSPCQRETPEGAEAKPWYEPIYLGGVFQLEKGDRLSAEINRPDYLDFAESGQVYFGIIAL

Row | Binder | A450 (AU)
1 | TNFα dAb Fc variant T74L (Fc fusion, name in Kabat numbering) DIQMTQSPSSLSASVGDRVTITCRASQAIDSYLHWYQQKPGKAPKLLIYSASNLETGVPSRFSGSGSGTDFTLLISSLLPEDFATYYCQQVVWRPFTFGQGTKVEIKRV[human IgG1 Fc with changes left out] | 0.718
2 | TNFα dAb Fc variant T85A (Fc fusion, name in Kabat numbering) DIQMTQSPSSLSASVGDRVTITCRASQAIDSYLHWYQQKPGKAPKLLIYSASNLETGVPSRFSGSGSGTDFTLTISSLLPEDFAAYYCQQVVWRPFTFGQGTKVEIKRV[human IgG1 Fc with changes left out] | 0.92
3 | TNFα dAb Fc variant T85D (Fc fusion, name in Kabat numbering) DIQMTQSPSSLSASVGDRVTITCRASQAIDSYLHWYQQKPGKAPKLLIYSASNLETGVPSRFSGSGSGTDFTLTISSLLPEDFADYYCQQVVWRPFTFGQGTKVEIKRV[human IgG1 Fc with changes left out] | 0.59
4 | TNFα dAb Fc variant T74Y (Fc fusion, name in Kabat numbering) DIQMTQSPSSLSASVGDRVTITCRASQAIDSYLHWYQQKPGKAPKLLIYSASNLETGVPSRFSGSGSGTDFTLYISSLLPEDFATYYCQQVVWRPFTFGQGTKVEIKRV[human IgG1 Fc with changes left out] | 0.64
5 | TNFα dAb Fc variant T85H (Fc fusion, name in Kabat numbering) DIQMTQSPSSLSASVGDRVTITCRASQAIDSYLHWYQQKPGKAPKLLIYSASNLETGVPSRFSGSGSGTDFTLTISSLLPEDFAHYYCQQVVWRPFTFGQGTKVEIKRV[human IgG1 Fc with changes left out] | 0.769
6 | TNFα dAb Fc variant T74Q (Fc fusion, name in Kabat numbering) DIQMTQSPSSLSASVGDRVTITCRASQAIDSYLHWYQQKPGKAPKLLIYSASNLETGVPSRFSGSGSGTDFTLQISSLLPEDFATYYCQQVVWRPFTFGQGTKVEIKRV[human IgG1 Fc with changes left out] | 0.884
7 | TNFα dAb Fc variant T74P (Fc fusion, name in Kabat numbering) DIQMTQSPSSLSASVGDRVTITCRASQAIDSYLHWYQQKPGKAPKLLIYSASNLETGVPSRFSGSGSGTDFTLPISSLLPEDFATYYCQQVVWRPFTFGQGTKVEIKRV[human IgG1 Fc with changes left out] | 0.187

Other lines, results leading:

Row | A450 (AU) | Binder
8 | 0.195 | TNFα dAb Fc variant T85P (Fc fusion, name in Kabat numbering) DIQMTQSPSSLSASVGDRVTITCRASQAIDSYLHWYQQKPGKAPKLLIYSASNLETGVPSRFSGSGSGTDFTLTISSLLPEDFAPYYCQQVVWRPFTFGQGTKVEIKRV[human IgG1 Fc with changes left out]
9 | 0.682 | TNFα dAb Fc variant T85K (Fc fusion, name in Kabat numbering) DIQMTQSPSSLSASVGDRVTITCRASQAIDSYLHWYQQKPGKAPKLLIYSASNLETGVPSRFSGSGSGTDFTLTISSLLPEDFAKYYCQQVVWRPFTFGQGTKVEIKRV[human IgG1 Fc with changes left out]
10 | 0.895 | TNFα dAb Fc variant T85Y (Fc fusion, name in Kabat numbering) DIQMTQSPSSLSASVGDRVTITCRASQAIDSYLHWYQQKPGKAPKLLIYSASNLETGVPSRFSGSGSGTDFTLTISSLLPEDFAYYYCQQVVWRPFTFGQGTKVEIKRV[human IgG1 Fc with changes left out]
11 | 0.764 | TNFα dAb Fc variant T85Q (Fc fusion, name in Kabat numbering) DIQMTQSPSSLSASVGDRVTITCRASQAIDSYLHWYQQKPGKAPKLLIYSASNLETGVPSRFSGSGSGTDFTLTISSLLPEDFAQYYCQQVVWRPFTFGQGTKVEIKRV[human IgG1 Fc with changes left out]
12 | 0.742 | TNFα dAb Fc variant T85L (Fc fusion, name in Kabat numbering) DIQMTQSPSSLSASVGDRVTITCRASQAIDSYLHWYQQKPGKAPKLLIYSASNLETGVPSRFSGSGSGTDFTLTISSLLPEDFALYYCQQVVWRPFTFGQGTKVEIKRV[human IgG1 Fc with changes left out]
